# In patent publication US20250223331A1, “GLP-1/GIP DUAL-TARGETED POLYPEPTIDE AND FUSION PROTEIN AND APPLICATIONS THEREOF” (SUNSHINE LAKE PHARMA CO., LTD., priority 2021, published 2025):
# Columns and labels:
# [1] = system: GLP-1R or GIPR; assay: in vitro agonistic activity of fusion proteins, summary statement; assay type: cell-based; conditions: cAMP, GLP-1R / GIPR cells
# Method: The digested product was electrophoresed on 1% agarose gel and the target band was cut out with a clean blade, then a gel recovery kit was used to recover the target fragment. The specific experimental operations are carried out according to the kit instructions; • 3) The target fragment enzymatic digestion recovery product and vector plasmid pcDNA3.1 fragment were connected through T4 ligase and transformed into DH5a competent cells, then single colonies were isolated by spreading on plates, and the transformants were selected and expanded for enzyme digestion verification and sequencing verification. • 4) 200 mL of the bacterial liquid obtained in inoculation step 3) and verified by sequencing to contain the fusion protein of the target product was used for plasmid extraction. The kit used was PureLink HiPure Plasmid Maxiprep Kit, and according to the instructions. After the plasmid was verified to be correct by PCR and enzyme digestion, pvuI restriction enzyme was used for linearization. Finally, the ethanol precipitation method was used to recover the plasmid. • 5) The host cells were HEK293, one day before transfection, the cells were spread into a 6-well plate at a density of 2×10^6 cells/well, and the addition volume was 1 mL/well. The recovered linearized plasmid was transfected into HEK293 cells using Lipofectamine 3000 transfection method, then G418 was added to screen to obtain mixed strains, single clones were obtained by limiting dilution and isolation, and the activity was tested and verified.
# The cAMP produced by the recipient cells was detected by a cAMP detection kit (Cisbio, 62AM6PEC) according to the steps described in the operating instructions. […] If the mixture was not completely melted within 1.5 min, the cells were added dropwise to a 15 mL centrifuge tube containing 8 mL warm culture medium on a clean bench, then centrifuged at 900 rpm for 5 min, the supernatant was discarded, and the cells were re-suspended with 1 mL complete culture medium (15 times by pipetting).
# [2] = system: db/db mice; assay: in vivo efficacy in db/db mouse model, blood glucose
# Method: Methods: 7-8 week old db/db mice were randomly divided into 3 groups (Model group, Semaglutide group, HEC-G20 group) according to blood glucose and body weight, with 9 mice in each group. For the groups of Semaglutide (Semaglutide was purchased from Novo Nordisk, lot number was JP52092) and HEC-G20, the corresponding drug was administered subcutaneously into the mice at a dose of 10 nmol/kg for each group, and for the Model group, the corresponding vehicle was injected subcutaneously. The Semaglutide group was dosed once a day, and the HEC-G20 group was dosed twice a week for a total of 4 weeks, and animal blood glucose was tested before each dose.
# [3] = system: normal C57BL/6 mice; assay: glucose tolerance in normal C57BL/6 mice (Example 8); assay type: in vivo
# Method: Experimental methods: Normal C57BL/6 mice were randomly divided into 6 groups (Vehicle group, Dulaglutide group, HEC-G113 group, HEC-G122 group, HEC-G126 group, HEC-G127 group) according to blood glucose and body weight, with 8 mice in each group. For the groups of Dulaglutide (Dulaglutide purchased from Eli Lilly, lot number was D256504), HEC-G113, HEC-G122, HEC-G126 and HEC-G127, the corresponding drug was injected subcutaneously into the mice at a dose of 3 nmol/kg, and for the control group, the corresponding vehicle was injected subcutaneously.
# After 60 h of single administration, the mice were fasted for 12 h and drank water freely. Blood was collected from the tail vein to measure the basal blood glucose value of each group, then 2 g/kg of glucose solution was injected intraperitoneally, and blood glucose was measured at 15, 30, 60, 90 and 0 min after glucose administration. According to the blood glucose values measured at different time points, the blood glucose concentration-time curve was plotted, and the AUC0˜90min of each dose group was calculated, and the experimental results are shown in Table 7 and FIGS. 3-4
# [4] = system: DIO mice; assay: in vivo efficacy in DIO model: body weight, food intake, liver, blood biochemistry
# From the text: Experimental methods: C57/BL6 mice were randomly divided into normal group NFD and model group HFD at the fifth week of age, and the normal group was fed with ordinary maintenance diet, while the model group was fed with high-fat diet D12492. Changes in body weight and food intake in mice were monitored every 3 weeks. After 16 weeks of feeding, the body weight of mice in the model group and the normal group were (47.9±3.4) g and (29.6±1.5) g, respectively, and the difference between the two groups was statistically significant. The normal group was divided into the control group, and the model group mice that were successfully modeled were divided into Vehicle group, Semaglutide group, HEC-G115 group and HEC-G124 group, with 10 mice in each group. For the groups of Semaglutide, HEC-G115 and HEC-G124, the corresponding drug was injected subcutaneously in each group, and PBS was injected subcutaneously in the Vehicle group. […] Weight and food intake were measured before each dose. After 3 weeks of administration, an intraperitoneal glucose tolerance test was performed. After 72 h of the last administration, samples were collected, liver weight was recorded, and liver pathological status and blood biochemical indexes were detected in each group.
# [5] = long-term administration 10 nmol/kg s.c., 72 h after last administration
# [6] = long-term administration 10 nmol/kg s.c., blood biochemistry
molecule,measurement,setting,value
"HEC-G20: fusion protein of SEQ ID NO: 13 polypeptide, linker peptide and Fc fragment (protein) YGEGTFTSDYSIYLDKKAQRDFVEWLLAGGPSSGAPPPSGGGGSGGGGSGGGGSA[here human IgG4 Fc with S228P F234A L235A (EU numbers) without letters]",agonistic activity in vitro,[1],strong activity in vitro
same,hypoglycemic effect,"[2]; 10 nmol/kg s.c. twice a week, 4 weeks",significantly reduce blood glucose; also recorded: significantly improve blood glucose levels
same,Random blood glucose 1.5 h,"[2]; 10 nmol/kg s.c., 1.5 h",20.9 ± 3.3 mM
same,Random blood glucose 5 h,"[2]; 10 nmol/kg s.c., 5 h",14.8 ± 3.4 mM
same,Random blood glucose 7 h,"[2]; 10 nmol/kg s.c., 7 h",14.2 ± 3.8 mM
same,Random blood glucose D 0,"[2]; 10 nmol/kg s.c., Semaglutide once a day, HEC-G20 twice a week, D 0",26.0 ± 4.7 mM
same,Random blood glucose D 3,"[2]; 10 nmol/kg s.c., Semaglutide once a day, HEC-G20 twice a week, D 3",18.8 ± 4.0 mM
same,Random blood glucose D 7,"[2]; 10 nmol/kg s.c., Semaglutide once a day, HEC-G20 twice a week, D 7",17.3 ± 4.2 mM
same,Random blood glucose D 10,"[2]; 10 nmol/kg s.c., Semaglutide once a day, HEC-G20 twice a week, D 10",17.2 ± 3.0 mM
same,Random blood glucose D 14,"[2]; 10 nmol/kg s.c., Semaglutide once a day, HEC-G20 twice a week, D 14",20.0 ± 4.0 mM
same,Random blood glucose D 17,"[2]; 10 nmol/kg s.c., Semaglutide once a day, HEC-G20 twice a week, D 17",18.5 ± 5.2 mM
same,Random blood glucose D 21,"[2]; 10 nmol/kg s.c., Semaglutide once a day, HEC-G20 twice a week, D 21",19.4 ± 5.2 mM
same,Random blood glucose D 24,"[2]; 10 nmol/kg s.c., Semaglutide once a day, HEC-G20 twice a week, D 24",18.4 ± 4.8 ^a mM
same,time at which blood glucose value reached the lowest level,[2]; after administration of 10 nmol/kg s.c.,7 h
"HEC-G113: fusion protein of SEQ ID NO: 93 polypeptide, linker peptide and Fc fragment (protein) HSEGTFTSDYSILLDKIAQQDFVEWLLAGGPSSGAPPPSGGGGSGGGGSGGGGSA[here human IgG4 Fc with S228P F234A L235A (EU numbers) without letters]",Blood glucose value 0 min,"[3]; 3 nmol/kg s.c. single dose, 72 h after dose, 2 g/kg glucose i.p., 0 min",5.4 ± 0.7 mM
same,Blood glucose value 15 min,"[3]; 3 nmol/kg s.c. single dose, 72 h after dose, 2 g/kg glucose i.p., 15 min",13.8 ± 2.7 mM
same,Blood glucose value 30 min,"[3]; 3 nmol/kg s.c. single dose, 72 h after dose, 2 g/kg glucose i.p., 30 min",13.0 ± 2.3 mM
same,Blood glucose value 60 min,"[3]; 3 nmol/kg s.c. single dose, 72 h after dose, 2 g/kg glucose i.p., 60 min",8.3 ± 1.0 mM
same,Blood glucose value 90 min,"[3]; 3 nmol/kg s.c. single dose, 72 h after dose, 2 g/kg glucose i.p., 90 min",6.2 ± 0.7 mM
same,AUC0-90 min,"[3]; blood glucose concentration-time curve, 3 nmol/kg s.c. single dose, 72 h after dose",882.8 ± 115.2 ^a
same,effect on blood glucose levels,[3]; normal C57 mice after a single dose for 72 h,significantly reduced the blood glucose levels
same,agonistic activity in vitro,[1],strong activity in vitro
"HEC-G115: fusion protein of SEQ ID NO: 95 polypeptide, linker peptide and Fc fragment (protein) YSEGTFTSDYSILLDKIAQREFIEWLLAGGPSSGAPPPSGGGGSGGGGSGGGGSA[here human IgG4 Fc with S228P F234A L235A (EU numbers) without letters]",agonistic activity in vitro,[1],strong activity in vitro
same,effect on liver function and blood lipids,[4],significantly improved the liver function and blood lipids
same,Cumulative food intake D 7-10,"[4]; 10 nmol/kg s.c. repeated, D 7-10",13.3 g/pcs
same,Weight growth rate D 10,"[4]; 10 nmol/kg s.c. repeated, D 10",−22.2 ± 6.2%
same,Cumulative food intake D 11-13,"[4]; 10 nmol/kg s.c. repeated, D 11-13",19.2 g/pcs
same,Weight growth rate D 13,"[4]; 10 nmol/kg s.c. repeated, D 13",−24.3 ± 8.5%
same,Cumulative food intake D 14-16,"[4]; 10 nmol/kg s.c. repeated, D 14-16",25.7 g/pcs
same,Weight growth rate D 16,"[4]; 10 nmol/kg s.c. repeated, D 16",−24.2 ± 7.8%
same,Cumulative food intake D 17-19,"[4]; 10 nmol/kg s.c. repeated, D 17-19",33.7 g/pcs
same,Weight growth rate D 19,"[4]; 10 nmol/kg s.c. repeated, D 19",−23.9 ± 7.7%
same,Cumulative food intake D 20-22,"[4]; 10 nmol/kg s.c. repeated, D 20-22",42.2 g/pcs
same,Weight growth rate D 22,"[4]; 10 nmol/kg s.c. repeated, D 22",−22.4 ± 6.8%
same,Cumulative food intake D 23-27,"[4]; 10 nmol/kg s.c. repeated, D 23-27",55.5 ^a g/pcs
same,Weight growth rate D 25,"[4]; 10 nmol/kg s.c. repeated, D 25",−20.4 ± 6.8^a %
same,Cumulative food intake D 0,"[4]; 10 nmol/kg s.c., D 0",0.6 g/pcs
same,Weight growth rate D 0,"[4]; 10 nmol/kg s.c., D 0",0.0 ± 0.0%
same,Cumulative food intake D 1,"[4]; 10 nmol/kg s.c., D 1",1.5 g/pcs
same,Weight growth rate D 1,"[4]; 10 nmol/kg s.c., D 1",−5.5 ± 0.7%
same,Cumulative food intake D 2,"[4]; 10 nmol/kg s.c., D 2",2.6 g/pcs
same,Weight growth rate D 2,"[4]; 10 nmol/kg s.c., D 2",−8.4 ± 1.0%
same,Cumulative food intake D 3,"[4]; 10 nmol/kg s.c., D 3",3.8 g/pcs
same,Weight growth rate D 3,"[4]; 10 nmol/kg s.c., D 3",−9.7 ± 1.1%
same,Cumulative food intake D 4,"[4]; 10 nmol/kg s.c., D 4",5.7 g/pcs
same,Weight growth rate D 4,"[4]; 10 nmol/kg s.c., D 4",−11.5 ± 1.1%
same,Cumulative food intake D 5,"[4]; 10 nmol/kg s.c., D 5",7.4 g/pcs
same,Weight growth rate D 5,"[4]; 10 nmol/kg s.c., D 5",−12.7 ± 1.7%
same,Cumulative food intake D 6,"[4]; 10 nmol/kg s.c., D 6",9.3 g/pcs
same,Weight growth rate D 6,"[4]; 10 nmol/kg s.c., D 6",−13.4 ± 2.0%
same,Weight growth rate D 7,"[4]; 10 nmol/kg s.c., D 7",−13.4 ± 2.6%
same,Liver,"[4]; liver weight, long-term administration 10 nmol/kg s.c., 72 h after last administration",1.0 ± 0.1 ^a g
same,Body weight,[4]; [5],32.4 ± 2.1^a g
same,Liver index,[4]; [5],3.0 ± 0.0 ^a %
same,ALT,[4]; [6],20.7 ± 3.1 ^a U/L
same,AST,[4]; [6],107.3 ± 11.9 ^a U/L
same,CHOL,[4]; [6],2.9 ± 0.3 ^a mmol/L
same,TRIGL,[4]; [6],0.8 ± 0.2 mmol/L
same,weight loss and feeding inhibition effects compared with Semaglutide,"[4]; once every three days, after 4 weeks, same dose",comparable to those of the control group Semaglutide

# Entries after “also recorded” stand apart in the source; their conditions may differ. Marks after values point to notes of the source that are not given here.
